Experimental data published in PMC6919601, “Identification of Plasmodium dipeptidyl aminopeptidase allosteric inhibitors by high throughput screening” (PLoS ONE, 2019).
The campaign covered roughly 110,000 compounds. About 230 (0.21%) showed an effect of 50% or more. Some of the results follow.

target: DPAP1 (Plasmodium falciparum, UniProt Q8IIJ9); test: primary screen, percent inhibition; read by cleavage of a fluorogenic dipeptide substrate; higher = more effect of the substance; set-up: species or system P. falciparum D10 trophozoite lysates; single well
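Note: 30 min substrate incubation versus DMSO and 10 µM JCP410 controls.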

Chain of DPAP1 (Q8IIJ9 whole entry, looked up): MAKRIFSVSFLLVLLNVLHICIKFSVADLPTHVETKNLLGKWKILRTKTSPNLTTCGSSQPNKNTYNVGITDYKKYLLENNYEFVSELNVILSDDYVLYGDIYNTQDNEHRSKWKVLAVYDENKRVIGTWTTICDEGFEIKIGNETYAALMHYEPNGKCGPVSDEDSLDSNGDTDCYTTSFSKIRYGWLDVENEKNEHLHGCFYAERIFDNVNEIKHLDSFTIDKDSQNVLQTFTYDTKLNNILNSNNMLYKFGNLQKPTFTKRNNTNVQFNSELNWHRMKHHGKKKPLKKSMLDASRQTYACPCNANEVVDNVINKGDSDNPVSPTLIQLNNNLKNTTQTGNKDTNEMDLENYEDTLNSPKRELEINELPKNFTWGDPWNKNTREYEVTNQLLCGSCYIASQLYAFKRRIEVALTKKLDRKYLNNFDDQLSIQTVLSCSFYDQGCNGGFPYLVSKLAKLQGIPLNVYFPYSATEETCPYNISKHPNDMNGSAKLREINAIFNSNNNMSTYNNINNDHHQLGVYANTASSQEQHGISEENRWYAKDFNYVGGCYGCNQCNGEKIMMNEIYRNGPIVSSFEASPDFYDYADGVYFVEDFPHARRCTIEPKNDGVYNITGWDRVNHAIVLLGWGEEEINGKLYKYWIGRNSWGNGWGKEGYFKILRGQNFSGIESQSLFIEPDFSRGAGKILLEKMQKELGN

Row | SMILES | % Inhibition @ 10 uM [%]
1 | Cc1ccc2c(=O)cc(C(=O)Nc3nc4ccc(F)cc4s3)oc2c1C | -3.24
2 | Cc1ccccc1S(=O)(=O)Cc1ccc(C(=O)N2CCN(C3CCCCC3)CC2)o1 | 0.51
3 | O=C(NCCn1ccc2ccccc21)c1ccccc1Cl | -1.62
4 | CC(C)Cn1cc(NC(=O)N2CCOCC2)c2ccccc2c1=O | -5.94
5 | CCOc1ccc(C2CC(c3ccc(C)c(C)c3)Nc3nnnn32)cc1 (stereo not drawn) | -1.48
6 | COc1cccc(Nc2nc(-c3ccc(S(=O)(=O)N4CCCC4)cc3)cs2)c1 | -7.57
7 | Nc1cc(O)nc(SCC(=O)N2CCc3ccccc32)n1 | 2.3
8 | O=C(O)CCCC(=O)Nc1cccc(C(F)(F)F)c1 | 2.38
9 | Cn1ncc([N+](=O)[O-])c1C(=O)NC1CCCCC1 | 3.31
10 | CCN(CC)S(=O)(=O)c1ccc(NC(=O)COc2ccc(Cl)cc2)cc1 | -4.82
11 | Cn1c2ccccc2c2cnn(CC(=O)NCCCN3CCC(N4CCCCC4)CC3)c(=O)c21 | -3.9
12 | NC(=O)C1CCN(c2nc(-c3cccc(Cl)c3)c3c(n2)-c2ccccc2OC3)CC1 | 2.32
13 | O=C(NCCc1ccc(Cl)cc1)c1nc(-c2ccncc2)no1 | -6.34
14 | CCOc1ccccc1NC(=O)c1cc(OC)c(OC)c(OC)c1 | -0.872
15 | COc1ccc(Cn2c(S)nc3ccccc32)cc1 | -5.34
16 | Cc1nn(-c2ccccc2)c(-n2cccc2)c1C(=O)N1CCC(C(=O)N2CCOCC2)CC1 | -1.58
17 | O=C(CN1C(=O)c2ccccc2C1=O)Nc1ccccc1C(=O)N1CCCCC1 | 5.63
18 | COC(=O)c1c2c(nc3ccccc13)CCC2 | 0.205
19 | Cc1cc(Cl)cc(Cl)c1OCC(=O)Nc1ccccn1 | 7.73
20 | CC(=O)Nc1c(O)nc(SCC(=O)Nc2nnc(CC(C)C)s2)nc1O | -3.74
21 | O=c1c2nccnc2nc(SCc2cccc(F)c2)n1CCc1ccccc1 | 1.39
22 | COc1ccc2c(c1)nc(CO)n2C | 0.778
23 | O=C(O)COc1ccccc1/C=C1\Sc2ccccc2C1=O | 4.28
24 | CCOC(=O)c1[nH]c2ccccc2c1NC(C)=O | 6.43
25 | Cc1ccc(CNC(=O)C2CCN(S(=O)(=O)c3c[nH]cn3)CC2)cc1 | -0.499
26 | Cc1ccc(C(=O)NCc2ccco2)cc1 | 3

Row | SMILES | % Inhibition @ 10 uM [%]
27 | CN(C)c1c2ccccc2nc2c(F)c(F)c(F)c(F)c12 | 2.46
28 | Cc1nnc(NC(=O)CSc2nnc(CNC(=O)c3c(F)cccc3Cl)o2)s1 | -1.58
29 | N#CC1=C(N)N(c2nc[nH]n2)C2=C(C(=O)CC(c3ccccc3)C2)C1c1ccccc1Cl (stereo not drawn) | 0.726
30 | Cc1ccsc1CN(C)C1CCN(C)CC1 | -2.03
31 | COc1ccccc1C(=O)Nn1cnnc1 | 2.03
32 | CCc1c(CN2CCN(c3ccccn3)CC2)csc1C | -5.74
33 | COc1ccc(Cc2noc(COc3ccc4ccccc4c3)n2)cc1 | -8.64
34 | CCOC(=O)C1=C(O)/C(=C\c2ccc(Cl)cc2Cl)N=C1C | 7.35
35 | O=C1CC(C(=O)Nc2ccc(C(=O)O)cc2)SC(Nc2ccccc2)=N1 (stereo not drawn) | -6.05
36 | C[C@@H](C[C@H](NC(=O)c1ccc(-c2cc(C(=O)O)ccc2Cl)cc1)C(=O)NC1(C#N)CCN(CC(F)(F)F)CC1)c1ccccc1 | -6.56
37 | COc1ccccc1/C=C1/C(=N)N2C(c3ccccc3)=CSC2=NC1=O | -3.75
38 | OC1(c2ccc3ccccc3n2)COc2ccccc2O1 (stereo not drawn) | 5.64
39 | CC1CCN(C(=O)CNC(=O)c2cccs2)CC1 | 2.05
40 | C#CCOc1c(Cl)cc(/C=C2/NC(=O)NC2=O)cc1Cl | -1.25
41 | CC1CN(S(=O)(=O)c2ccc(NC(=O)c3ccccc3Cl)cc2)CC(C)O1 (stereo not drawn) | -1.78
42 | CCCc1c(O)nc(SCCN(CC)CC)n(C(=O)c2ccccc2)c1=O | -6.6
43 | CCNc1sc(S(C)(=O)=O)nc1S(=O)(=O)c1ccc(Cl)cc1 | -0.522
44 | CNS(=O)(=O)c1cn(CC(=O)N2CCCC(C)C2)cc1S(=O)(=O)NC (stereo not drawn) | -0.518
45 | Cc1ccccc1C(=O)N(Cc1ccco1)C1CCS(=O)(=O)C1 (stereo not drawn) | 0.569
46 | CN(C)C(=O)CS(=O)(=O)c1ccc2ccccc2c1 | -0.105
47 | Cc1cccc(-n2c(S)nnc2CN2CCSCC2)c1 | 5.16
48 | O=C(COc1ccc(S(=O)(=O)N2CCCC2)cc1)N1CCN(c2ccccc2F)CC1 | 0.361
49 | O=S(=O)(c1ccc(Cl)cc1)N1CCC(Cc2ccccc2)CC1 | -3.44
50 | CC(CCc1ccccc1)Nc1cnn(C23CC4CC(CC(C4)C2)C3)c(=O)c1Cl (stereo not drawn) | -2.27
51 | Oc1nc2ccccc2n1Cc1ccccc1Cl | -5.92
52 | CC(NS(=O)(=O)c1ccc(OCC(=O)Nc2ccccc2F)cc1)c1ccccc1 (stereo not drawn) | -1.36

Row | SMILES | % Inhibition @ 10 uM [%]
53 | CCOc1ccc2nc(NC(=O)c3ccc(C)o3)sc2c1 | -1.42
54 | COc1ccc(C2(CNC(=O)C(=O)NCCO)CCCC2)cc1OC | 0.00706
55 | Cc1ccc(-c2[nH]nc3c2C(c2cccc(O)c2)C(C#N)=C(N)O3)cc1 (stereo not drawn) | 2.26
56 | NS(=O)(=O)c1ccc(CNC(=O)c2cc(-c3ccc(Cl)s3)nc3ccccc23)cc1 | -4.67
57 | CNC1=NC(=O)CC(C(=O)Nc2ccc3ccccc3c2)S1 (stereo not drawn) | -0.864
58 | O=C(c1ccc2nc(N3CCOCC3)sc2c1)N1CCN(c2ncccn2)CC1 | 4.22
59 | O=C(C1CCCO1)N1CCN(c2ccccc2)CC1 (stereo not drawn) | 2.27
60 | COc1ccccc1C(=O)Nc1nc2nccc(C)n2n1 | 3.66
61 | COc1ccc(OCc2nnc(-c3ccccc3Cl)o2)cc1 | -2.99
62 | CCOC(=O)c1c(C)c(C(=O)NCCCOC)c(C)n1CC | 3.32
63 | COc1cc2nc(SCC(=O)Nc3cc(C)[nH]n3)n3nc(-c4ccccc4)nc3c2cc1OC | 1.23
64 | CCN(CC)CCNC1CCN(C)CC1 | -0.0908
65 | CCN(CC)CCNC(=O)c1ccc(CS(=O)(=O)Cc2cccc(Cl)c2)o1 | -4.53
66 | CC(=O)N1CCc2cc3nc(C)cc(C)c3cc21 | -4.52
67 | O=C(CCn1ccc2cc(S(=O)(=O)N3CCCCC3)ccc21)N1CCN(C(=O)c2ccco2)CC1 | 4.16
68 | c1ccc(-c2nnnn2-c2ccncc2)cc1 | -4.21
69 | Cc1cc(C)cc(Oc2coc3cc(OCC(=O)NCc4ccccc4)ccc3c2=O)c1 | 9.49
70 | CC1=NNC(=O)C1c1c[nH]c2ccccc12 (stereo not drawn) | -2.36
71 | O=C(CN1C(=O)c2ccccc2S1(=O)=O)NCc1ccc(Cl)cc1 | 2
72 | CCC(=O)c1c(C)cc(C)nc1N1CCOCC1 | 5.66
73 | c1ccc(CNC2CCCc3c2[nH]c2ccc(-c4ccccc4)cc32)cc1 (stereo not drawn) | -2.55
74 | COc1ccc(S(=O)(=O)Nc2cccc(-c3csc(C)n3)c2)cc1OC | -9.29
75 | Cc1ccc(-n2nc(C)c(/C=N/c3ccc(S(=O)(=O)N(C)C)cc3)c2O)c(C)c1 | -0.864
76 | c1ccc(CNc2ncnc3ncn(Cc4ccccc4)c23)cc1 | -0.216
77 | O=C(O)C1C2CCC(O2)C1C(=O)NC1CCCCC1 (stereo not drawn) | 0.205
78 | CCOc1ccc(Nc2oc(-c3cccs3)nc2C#N)cc1 | -7.96

Row | SMILES | % Inhibition @ 10 uM [%]
79 | COc1cccc2c1nc(C)c1cc(C)oc12 | 0.51
80 | O=C(Nc1ccc(Nc2ccccc2)cc1)c1ccc(F)cc1 | -3.71
81 | COc1ccc(OC)c(NC(=O)CCC2CCCC2)c1 | -0.28
82 | CC(C)N(Cc1nc(-c2ccc(Cl)cc2)no1)C(=O)c1ccc2c(c1)OCO2 | -2.45
83 | CCCS(=O)(=O)N1CCN(Cc2noc(CCC(=O)N3CCCC3)n2)CC1 | 0.713
84 | COc1ccc(S(=O)(=O)N(CC(=O)N2CCN(c3ccc(F)cc3)CC2)Cc2ccccc2)cc1 | 5.03
85 | O=C1NC(=O)C(=Cc2cccc(Br)c2)C(=O)N1 | -5.11
86 | COc1cc(CNC(C)(C)CO)ccc1OCc1ccccc1Cl | 7.35
87 | O=C(CN(c1ccccc1F)S(=O)(=O)c1ccccc1)NC1CCCCC1 | -3.25
88 | O=C(/C=C/c1cccc([N+](=O)[O-])c1)Nc1cccc(O)c1 | 6.49
89 | COc1cc(/C=c2\sc3nc(-c4ccc(Cl)cc4)nn3c2=O)cc(OC)c1OC | 3.54
90 | O=C(CCCC(=O)Nc1ccc(Cl)cc1)Nc1ccc(Cl)cc1 | -2.56
91 | Cc1cc(Br)c(-n2nc(C)c3c(C)cc(=O)oc32)cc1C | -5
92 | CC1CC(C)CN(CCCNC(=O)c2cc3c(s2)-c2ccccc2OC3)C1 (stereo not drawn) | -3.08
93 | CCOC(=O)/C(C#N)=C/c1ccc(OC)c(Br)c1 | 2.13
94 | Cc1cc(C)c(C#N)c(SCC(=O)Nc2ccccc2C(N)=O)n1 | -2.24
95 | CCOc1ccc2nc(N3CCC(C(=O)NC4CCCc5ccccc54)CC3)sc2c1 (stereo not drawn) | -0.0745
96 | Cc1nnc(N2CCCC(C(=O)NCCc3cccs3)C2)c2nn(-c3ccc(Cl)cc3)c(C)c12 (stereo not drawn) | 6
97 | COc1ccc(Cl)cc1NC1=C(Cl)C(=O)N(c2ccccc2)C1=O | -1.07
98 | Cc1ccc(C(=O)NCCCN2CCOCC2)o1 | -1.89
99 | Nc1cc2c(cc1S(=O)(=O)O)C(=O)c1ccccc1C2=O | 0.962
100 | CCN(CC)CCCn1c(N)c(-c2nc3ccccc3[nH]2)c2nc(C#N)c(C#N)nc21 | -3.63
101 | COc1ccc(/C=C2\N=C(c3cc(F)c(F)cc3Cl)OC2=O)c(OC)c1 | -4.13
102 | O=C(NCCN1CCCCCC1)c1cc(-c2ccc(Cl)cc2)n[nH]1 | 1.41
